# Data published in PubChem BioAssay AID485294 (National Center for Advancing Translational Sciences (NCATS), 2010).
# Several values for one entry are separate records, joined by “and”; a condition that tells them apart may be missing. Identical values can stand only once. The whole screen tested about 370,000 compounds, of which about 150 (0.041%) were called active. Inconclusive means that the source gave no clear call. Such entries were picked first, then a sample of the others. Calls follow the shape of the dose curve; as a rule, active = well fitted inhibition curve with a large enough effect; inconclusive = small, poorly fitted or top-dose-only effect; inactive = flat fitted curve, though single readings scatter. Potencies beside an inconclusive call are fits to weak or partial responses and may not hold up.
# Target: Beta-lactamase (Escherichia coli (strain K12)) (UniProt P00811)
# Experiment: qHTS Inhibitors of AmpC Beta-Lactamase (assay with detergent); also: nearly all actives have a fitted effect of over 25% in size;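 as to activity change, negative = inhibition: 0% = no-compound wells and -100% = no-enzyme wells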
# Conditions: AmpC hydrolysis of nitrocefin, absorbance 480 nm, 0.01% Triton; activity change, negative = inhibition: at 114 µM (top of the series)
# Method in brief: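 20 mM phosphate pH 7.0 + 0.01% (detergent screen) or 0.0001% Triton X-100; 5.3 nM AmpC reagent; cpd preinc 15 min RT; nitrocefin (800 uM stock) to start; A480 q20 s × 4 min; Activity was normalised to no-enzyme and no-compound control wells.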
# Potency is read from the fitted curve at half-maximal effect; tags tell the direction and shape of the fitted curve.
# Chain of UniProt P00811 (P00811 whole entry, looked up): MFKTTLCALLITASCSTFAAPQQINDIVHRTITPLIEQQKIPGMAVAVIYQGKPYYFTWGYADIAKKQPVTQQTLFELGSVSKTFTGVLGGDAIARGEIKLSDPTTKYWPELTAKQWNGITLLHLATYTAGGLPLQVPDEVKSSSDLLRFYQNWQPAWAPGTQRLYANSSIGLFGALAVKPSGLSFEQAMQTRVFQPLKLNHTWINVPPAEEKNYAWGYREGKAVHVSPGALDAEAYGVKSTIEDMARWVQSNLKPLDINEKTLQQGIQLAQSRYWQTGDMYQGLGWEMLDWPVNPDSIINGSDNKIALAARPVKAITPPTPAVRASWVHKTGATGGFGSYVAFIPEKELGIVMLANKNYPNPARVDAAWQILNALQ
SMILES,Potency,"activity change, negative = inhibition"
CC1(C)CC(=O)c2sc(NC(=O)Cc3cccs3)nc2C1,"inconclusive: 0.794 µM [inhibitor, full curve, poor fit]",
COc1cccc(CNC(=O)C(=O)Nc2ccc3nc4n(c(=O)c3c2)CCCCC4)c1,,inactive: 15.3%
CCOC(=O)C(NC(=O)CC)(Nc1sc(C)c(CC)c1C#N)C(F)(F)F (stereo not drawn),,inactive: -14.1%
O=[N+]([O-])c1ccc(-c2cn(-c3ccccc3F)c(=S)[nH]2)cc1,,inactive: -2.97%
CCN(Cc1ccccc1)C(c1cccs1)c1nnnn1C1CCCCC1 (stereo not drawn),"inconclusive: 3.55 µM [inhibitor, full curve, poor fit]",
O=C(CCCCn1c(=O)c2ccccc2n(CC(=O)Nc2ccc(F)cc2)c1=O)NCc1ccco1,"inconclusive: 0.562 µM [inhibitor, full curve, poor fit]",
CCc1cccc(C)c1NC(=O)c1ccc2nc(N3CCOCC3)sc2c1,"inconclusive: 89.1 µM [inhibitor, partial curve]",
COc1cccc(-c2ccc(SCC(=O)NC3CCCCC3)nn2)c1,"inconclusive: 0.631 µM [inhibitor, partial curve, poor fit]",
CC(=O)Cc1nsc(NC(=O)c2ccc(-c3ccc(Cl)c(C(F)(F)F)c3)o2)n1,"inconclusive: 112 µM [inhibitor, partial curve, poor fit]",
Cc1ccc2c(c1)nnn2C1CCN(CC(=O)N2c3ccccc3CC2C)CC1 (stereo not drawn),,inactive: -12.5%
COc1cc(C(=O)NCc2ccc(S(N)(=O)=O)cc2)ccc1OCC(=O)N1CCOCC1,"inconclusive: 1.58 µM [inhibitor, full curve, poor fit]",
CC(=O)c1ccc(C(=O)N2CCc3c([nH]c4ccccc34)C2c2cccc(C)n2)s1 (stereo not drawn),,inactive: 1.96%
Cc1ccc2c(c1C)NC(=O)CC2c1ccc(Cl)cc1Cl (stereo not drawn),,inactive: 10.9%
CCN(CC)S(=O)(=O)c1ccc(C(=O)NCC(c2cccs2)N2CCOCC2)cc1 (stereo not drawn),"inconclusive: 50.1 µM [inhibitor, partial curve, poor fit]",
CCc1ccc(OCC(=O)Nc2ccc(-c3nc4ncccc4o3)cc2)cc1,,inactive: 13.3%
COc1ccccc1P(=O)(c1ccccc1)c1ccccc1,"inconclusive: 4.47 µM [inhibitor, single point]",
O=C(c1cc2cc(Cl)ccc2[nH]1)N1CCc2ccccc2C1,,inactive: 1.44%
C[C@]12CCC(=O)C[C@@H]1CC[C@@H]1[C@@H]2CC[C@]2(C)C=CC[C@@H]12,"inconclusive: 22.4 µM [inhibitor, full curve]",
Cc1ccc(NC(=O)CN2CCC(NC(=O)C3CCCCC3)CC2)c(Br)c1,"inconclusive: 1.41 µM [inhibitor, full curve, poor fit]",
COc1cc(CC(=O)NCCCc2ccccc2)cc(OC)c1OC,"inconclusive: 112 µM [inhibitor, partial curve, poor fit]",
Cc1cc(CCN2CCC(=O)NC2=O)ccc1OC(C)C,"inconclusive: 0.398 µM [inhibitor, full curve, poor fit]",

SMILES,Potency,"activity change, negative = inhibition"
CN1C(=O)CC(c2ccco2)Sc2ccccc21 (stereo not drawn),"inconclusive: 89.1 µM [inhibitor, single point]",
CCOC(=O)C1(C)NC(c2ccccc2F)C2C(=O)N(c3cccc(C(C)=O)c3)C(=O)C21 (stereo not drawn),"inconclusive: 31.6 µM [inhibitor, partial curve, poor fit]",
O=S(=O)(NCCSc1nnc(-c2ccco2)n1-c1ccccc1)c1ccccc1,"inconclusive: 0.355 µM [inhibitor, full curve, poor fit]",
O=C(Oc1ccc[nH]c1=O)c1cccc(Cl)c1,"inconclusive: 79.4 µM [inhibitor, single point]",
Cn1c(Oc2ccccc2NCc2cc(Br)ccc2O)cc(=O)n(C)c1=O,"inconclusive: 2.24 µM [inhibitor, full curve, poor fit]",
Cn1c(C(=O)Nc2ccc3c(c2)OCCO3)cc2c(=O)n(C)c3ccccc3c21,"inconclusive: 89.1 µM [inhibitor, partial curve, poor fit]",
CCC(=O)Nc1nc2cc(OC)ccc2s1,"inconclusive: 35.5 µM [inhibitor, partial curve]",
O=C(O)CN=C1CC(c2ccccc2)CC(=O)/C1=C(/O)CCCN1C(=O)c2ccccc2C1=O (stereo not drawn),"inconclusive: 0.631 µM [inhibitor, full curve, poor fit]",
O=C(CN1C(=O)NC2(CCCc3ccccc32)C1=O)Nc1cccc(S(=O)(=O)N2CCCCC2)c1 (stereo not drawn),,inactive: -6.72%
CCSc1nnc(NC(=O)Cc2cc(OC)c(OC)c(OC)c2)s1,,inactive: -13.7%
O=[N+]([O-])c1cc(CN2CCCCCC2)ccc1O,"inconclusive: 1 µM [inhibitor, full curve, poor fit]",
Cc1cccc(CS(=O)(=O)Cc2ccc(C(=O)NCc3ccco3)o2)c1,,inactive: -1.21%
CCCCCCc1nc(C(N)=O)c2[nH]c(=O)n(-c3ccccc3F)c2n1,"inconclusive: 22.4 µM [inhibitor, full curve, poor fit]",
C=Cn1cc[n+](CC(=O)c2cc(C(C)(C)C)c(O)c(C(C)(C)C)c2)c1,,inactive: -14.5%
CN(C)[C@@H]1C(=O)C(C(N)=O)=C(O)[C@@]2(O)C(=O)C3=C(O)c4c(O)cccc4[C@@](C)(O)[C@H]3[C@H](O)[C@@H]12,"inconclusive: 79.4 µM [inhibitor, partial curve] and inconclusive: 2.82 µM [inhibitor, full curve, poor fit] and inconclusive: 100 µM [inhibitor, partial curve, poor fit]",
CCc1cccc(C)c1NC(=O)Cn1ccn(Cc2ccc(Cl)cc2)c(=O)c1=O,,inactive: 14.2%
CCN1C(=NCCc2cccs2)N[C@@H](c2cccs2)C(C(=O)OC)=C1C,"inconclusive: 0.631 µM [inhibitor, full curve, poor fit]",
CC(C)c1ccc(/C=N/NC(=O)c2nnn(-c3nonc3N)c2CN(C)C2CCCCC2)cc1,,inactive: 1.53%
Cc1cc(C)c2c(CC(=O)Nc3ccc(S(=O)(=O)Nc4ncccn4)cc3)coc2c1,"inconclusive: 22.4 µM [inhibitor, single point]",
CCOC(=O)CN(C(=O)c1snc(C(N)=O)c1N)C(C(=O)NCCC(C)C)c1ccc(F)cc1 (stereo not drawn),"inconclusive: 20 µM [inhibitor, partial curve]",
O=C(NNS(=O)(=O)c1ccc(F)cc1)c1sccc1-n1cccc1,"inconclusive: 100 µM [inhibitor, single point]",

SMILES,Potency,"activity change, negative = inhibition"
Cc1n[nH]c(=S)c2nn(-c3cccc(Cl)c3)c(C)c12,,inactive: -5.96%
C/C=C(/C)C(=O)O[C@@H]1c2c(ccc3ccc(=O)oc23)OC(C)(C)[C@@H]1OC(=O)/C(C)=C\C,"inconclusive: 39.8 µM [inhibitor, single point]",
COc1cccc(CN(C(=O)c2cc3ccccc3oc2=O)C2CCS(=O)(=O)C2)c1 (stereo not drawn),,inactive: 0.352%
O=C(Cn1nc(C(F)(F)F)c2c1CCC2)Nc1ccc(Cl)cc1,,inactive: -5.61%
CC(=O)c1cc2c(cc1NC(=O)CCn1cnnn1)OCO2,,inactive: -13%
Cc1ccc(C2CC(c3ccccc3)=NN2C(=S)Nc2ccccc2)o1 (stereo not drawn),,inactive: -11.1%
CS(=O)(=O)c1ccc2nc(NC(=O)CCS(=O)(=O)c3ccccc3)sc2c1,"inconclusive: 3.55 µM [inhibitor, full curve, poor fit]",
CCOc1cc2c(cc1OCC)C(c1ccc(OC)c(OC)c1)N(c1ccc(C(=O)O)cc1)C(=O)C2 (stereo not drawn),"inconclusive: 28.2 µM [inhibitor, full curve, poor fit]",
CCOC(=O)C1CCCN(c2cc(=O)n(Cc3ccc(F)cc3)c(=O)[nH]2)C1 (stereo not drawn),"inconclusive: 1.41 µM [inhibitor, full curve, poor fit]",
CN(Cc1ccccc1)C(=O)CN(c1ccccc1Cl)S(C)(=O)=O,"inconclusive: 5.62 µM [inhibitor, full curve, poor fit]",
CCn1cc(C(C)(C)C)c(C#N)c1NC(C)=O,"inconclusive: 7.94 µM [inhibitor, full curve]",
O=C1CC(/C=C/c2ccco2)=Nc2ccccc2N1,"inconclusive: 1.12 µM [inhibitor, full curve, poor fit]",
CCOc1c2ccc(C(=O)NCCc3cccs3)cc2nn1CC,"inconclusive: 35.5 µM [inhibitor, full curve, poor fit]",
CCCCN(C(=O)NC(=O)Nc1cccc(C)c1C)S(C)(=O)=O,"inconclusive: 0.708 µM [inhibitor, full curve, poor fit]",
Cc1ccc(Oc2ccc(OCC(=O)NC(CC(C)C)C(=O)O)cc2)cc1 (stereo not drawn),"inconclusive: 100 µM [inhibitor, single point]",
COc1ccc([N+](=O)[O-])cc1NC(=O)c1ccc(N(Cc2ccccc2Cl)S(C)(=O)=O)cc1,"inconclusive: 0.631 µM [inhibitor, full curve, poor fit]",
O=C(NCc1ccccc1)c1nc2ccccc2s1,"inconclusive: 112 µM [inhibitor, partial curve, poor fit]",
CC(C)n1cc(/C=C2/NC(=O)N(c3cccc(Cl)c3)C2=O)c2ccccc21,"inconclusive: 56.2 µM [inhibitor, partial curve, poor fit]",
CS(=O)(=O)Nc1ccc(C(=O)NC2CCCCC2)cc1,"inconclusive: 35.5 µM [inhibitor, full curve, poor fit]",
CC(=O)c1ccc(NC(=O)Nc2ccc([N+](=O)[O-])cc2)cc1,"inconclusive: 1.58 µM [inhibitor, full curve, poor fit]",
O=S(=O)(NC1CCCCCCC1)c1cccs1,"inconclusive: 112 µM [inhibitor, partial curve, poor fit]",
